In all, about 33,000 sequences were measured (“E-score (-0.5 to 0.5)”: median about -0.041, highest 2% from about 0.37 on). This is one part of the list.
target: T1, Ecm22 (UniProt Q05958); assay: PBM E-score (8-mer binding enrichment) (E-score (-0.5 to 0.5)); higher = stronger / more preferred TF binding; most listed sequences are background and not binding sites; settings: protein concentration: 200 nM; construct: GST-full length
T1 sequence: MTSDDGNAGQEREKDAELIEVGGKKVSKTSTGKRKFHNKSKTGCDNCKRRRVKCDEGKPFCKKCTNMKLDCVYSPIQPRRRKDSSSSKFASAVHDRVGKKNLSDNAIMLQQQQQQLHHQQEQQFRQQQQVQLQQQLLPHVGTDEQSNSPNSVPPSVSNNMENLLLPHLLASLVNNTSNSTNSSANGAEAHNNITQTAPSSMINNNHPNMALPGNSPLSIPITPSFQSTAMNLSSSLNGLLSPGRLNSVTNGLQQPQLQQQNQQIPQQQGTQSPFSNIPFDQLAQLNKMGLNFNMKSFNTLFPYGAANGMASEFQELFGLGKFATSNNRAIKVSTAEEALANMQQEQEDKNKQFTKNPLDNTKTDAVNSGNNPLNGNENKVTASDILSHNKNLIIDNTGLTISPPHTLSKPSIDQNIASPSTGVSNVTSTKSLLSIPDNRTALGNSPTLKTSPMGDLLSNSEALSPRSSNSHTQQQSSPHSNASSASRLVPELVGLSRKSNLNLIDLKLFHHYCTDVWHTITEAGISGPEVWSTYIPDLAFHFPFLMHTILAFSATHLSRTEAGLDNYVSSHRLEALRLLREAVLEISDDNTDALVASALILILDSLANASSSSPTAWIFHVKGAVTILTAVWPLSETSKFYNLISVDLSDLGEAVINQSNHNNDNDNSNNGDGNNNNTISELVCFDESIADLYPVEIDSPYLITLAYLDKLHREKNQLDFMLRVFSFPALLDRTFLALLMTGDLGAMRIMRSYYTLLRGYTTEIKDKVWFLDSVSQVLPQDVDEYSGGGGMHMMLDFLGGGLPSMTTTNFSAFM
Description: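 Universal 'all 10-mer' protein binding microarrays (Agilent AMADID 015681) probed with GST-tagged S. cerevisiae TFs (full-length or DBD) made by in vitro transcription/translation (PURExpress), about 100-200 nM. Bound TF was detected with fluorescent anti-GST. Each ungapped 8-mer (which stands for itself and its reverse complement) is scored by the PBM enrichment score (E-score), a modified Wilcoxon-Mann-Whitney statistic from -0.5 to +0.5, computed with the Universal PBM Analysis Suite. Scale: above 0.35 generally sequence-specific binding.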

Sequence | PBM E-score
GACTTGTA | -0.0504
TCCAGACA | -0.136
AGCCCAGG | -0.341
CCTCCTCA | -0.138
AACTGAGT | -0.138
AGACACGC | 0.13
AATGGTAT | -0.174
GAGACGCC | 0.0333
GTAACTCA | -0.059
ATCAAAGC | -0.0724
ACAGCTGT | -0.202
TAGCGAAA | 0.191
TAGCTACA | -0.096
TCGGCCGA | 0.0486
TCACCGGA | -0.0436
GGAGAAAC | 0.0922
CAAGAGAC | -0.241
ATCGCTGA | 0.169
CGCGGCGC | -0.0391
ACATAGAT | -0.159
CCCCTTTC | -0.167
CCCCACAC | -0.107
ATGTGATG | -0.192
ACGGCTAT | -0.0333
GGGCTCGA | -0.0942

Sequence | PBM E-score
AAAATTGG | -0.105
CCGTTGTC | 0.202
GGTGGTTA | -0.0845
CAGTAGAC | -0.157
GAATTAAC | 0.155
CTGGTTGC | 0.0737
AACACAGA | -0.036
CACGGCGC | -0.191
AGCCACTG | 0.101
CATCCTAC | -0.0755
GAATCTAA | 0.00748
GCGATTTA | -4e-05
GATAGGGC | -0.335
AGCTGGCC | -0.155
AAAGGAAT | -0.0428
CCCCCGAA | -0.302
GCCGGAAA | -0.0143
TAGTCACA | -0.0449
CCCGTATC | 0.327
CTAAGGAG | -0.0285
GAGCCTCA | -0.179
GGTTGCAC | -0.129
GAAGCTCC | -0.0255
CCCAAGCA | -0.164
CATACAGC | -0.185

Sequence | PBM E-score
GCTCCAGC | 0.0148
AGTCGTAA | 0.395
GCCACGGC | -0.167
GGGAGCAA | -0.0345
GGCACGGA | -0.17
CCTCTCTA | -0.267
CTCTTGTA | -0.199
GCGCGTGA | 0.17
AAAACCAC | -0.0489
GGGTACAC | 0.0704
ACACTAGG | -0.131
CTCCATAC | 0.0437
GACGCTTA | 0.219
ACGTAGAT | 0.0678
AGGACCAC | -0.205
GATTCCAC | -0.125
GGCTTCGA | 0.015
CACAAAGA | -0.147
CGCGCCAG | -0.0745
GGCGGGAC | -0.169
ACCTCGTC | 0.17
GTCCTTTA | -0.0994
GTGCCTCA | -0.289
GGTGGAAA | -0.15
GGATAATA | 0.0306

Sequence | PBM E-score
AAGGTGAC | -0.185
AAAGATTC | -0.0192
CTAACATA | 0.0634
GTCGCAAC | 0.186
CACGCGGC | -0.0668
CGATGGGC | 0.0572
CAATACTC | -0.00496
ATGAGCTC | -0.0302
CTAGAAAA | -0.031
CTCTGTTC | -0.23
TCTGATAA | -0.271
TATCCAAA | 0.08
GCTAAAGA | -0.0261
GGTAAAAA | -0.0264
ACTGTCGC | 0.012
AAGGACAC | -0.168
ATATATAT | -0.0111
GCTCACAA | -0.0448
ATATCAAC | -0.103
CTAGGCTC | -0.0741
ACCGCGTG | -0.0457
CGTCCAAC | -0.156
GTCCCGAA | -0.0658
AAGACACA | -0.167
AAATATCT | -0.0801

Sequence | PBM E-score
CAGCATGA | -0.331
ACCGGGTA | 0.18
CGATGTCA | 0.0461
ACGTCTCT | -0.0325
CCATCATC | 0.00724
AACGCTAG | -0.143
TCCAGGCA | -0.00255
AGAACGAG | 0.45
AACCTTTA | -0.146
CCGTCCTC | -0.0393
AAACCGGA | -0.0778
CTTACGGC | 0.148
CTGGCGCA | -0.23
GCTTTGCA | -0.191
AACACCCC | -0.359
GTGCCCAC | -0.234
CCAAGTAA | 0.0825
CTTTTAGA | 0.00647
GACGAGTA | 0.117
AGAGTTAT | -0.16
CCCCCGCC | -0.351
GACACAGC | -0.133
ACTTACGA | 0.393
AGGGTGGA | -0.16
ATAGTATG | 0.0828

Sequence | PBM E-score
CAGTGTAG | -0.0425
ATAACCTC | -0.0672
CACCCGCC | 0.0626
GAAAAACA | 0.00133
CGGGAAGC | -0.0787
GGAACTAC | 0.0311
ACCTCAAA | 0.0237
TAGGAGGA | -0.23
CCCTGGCA | -0.183
ATAGAAAT | 0.0808
CGACTATC | 0.167
ATCCCCAA | -0.219
TAGGGCGA | -0.115
CAAGTCTA | -0.0401
CCTGGTCC | -0.206
TAATGAGA | -0.115
AGTGATTA | 0.092
AATCTGAC | -0.216
CCCTCCGA | -0.0959
GGCTCTCA | -0.299
CATACTTA | -0.0493
AAGATCAG | -0.0549
ACTCGGTA | 0.233
TAGCCCTA | -0.271
CCTATTCG | 0.0854

Sequence | PBM E-score
CTCTGATA | -0.216
CGCGCAGC | -0.0187
AAAGTCGA | 0.00308
GAGCACGC | 0.0715
AATCATAC | 0.264
AACACGCT | -0.0531
ACCGTCTA | -0.0861
CTGTGTCC | -0.164
CTTTTCTC | -0.0797
ACTCTAGC | -0.211
AACTGCTA | -0.118
GAAAGCGA | 0.202
AGCCTCTG | -0.161
AACTAAGA | -0.0189
GATCTAGA | -0.101
ACATCCAT | -0.068
CAGGTGTC | -0.137
CCCAAAGA | -0.236
AGAATGTC | -0.0576
TACGGACA | 0.258
ATCTTGTA | -0.00043
TACACGCA | -0.0384

From the supplement of paper PMC3334620
